# Data from the supplement of paper PMC3334620.
# In all, about 33,000 sequences were measured (“E-score (-0.5 to 0.5)”: median about -0.035, highest 2% from about 0.35 on). The list shows a part of the results.
# Molecular target: T1, Pdr3 (UniProt P33200)
# T1 sequence: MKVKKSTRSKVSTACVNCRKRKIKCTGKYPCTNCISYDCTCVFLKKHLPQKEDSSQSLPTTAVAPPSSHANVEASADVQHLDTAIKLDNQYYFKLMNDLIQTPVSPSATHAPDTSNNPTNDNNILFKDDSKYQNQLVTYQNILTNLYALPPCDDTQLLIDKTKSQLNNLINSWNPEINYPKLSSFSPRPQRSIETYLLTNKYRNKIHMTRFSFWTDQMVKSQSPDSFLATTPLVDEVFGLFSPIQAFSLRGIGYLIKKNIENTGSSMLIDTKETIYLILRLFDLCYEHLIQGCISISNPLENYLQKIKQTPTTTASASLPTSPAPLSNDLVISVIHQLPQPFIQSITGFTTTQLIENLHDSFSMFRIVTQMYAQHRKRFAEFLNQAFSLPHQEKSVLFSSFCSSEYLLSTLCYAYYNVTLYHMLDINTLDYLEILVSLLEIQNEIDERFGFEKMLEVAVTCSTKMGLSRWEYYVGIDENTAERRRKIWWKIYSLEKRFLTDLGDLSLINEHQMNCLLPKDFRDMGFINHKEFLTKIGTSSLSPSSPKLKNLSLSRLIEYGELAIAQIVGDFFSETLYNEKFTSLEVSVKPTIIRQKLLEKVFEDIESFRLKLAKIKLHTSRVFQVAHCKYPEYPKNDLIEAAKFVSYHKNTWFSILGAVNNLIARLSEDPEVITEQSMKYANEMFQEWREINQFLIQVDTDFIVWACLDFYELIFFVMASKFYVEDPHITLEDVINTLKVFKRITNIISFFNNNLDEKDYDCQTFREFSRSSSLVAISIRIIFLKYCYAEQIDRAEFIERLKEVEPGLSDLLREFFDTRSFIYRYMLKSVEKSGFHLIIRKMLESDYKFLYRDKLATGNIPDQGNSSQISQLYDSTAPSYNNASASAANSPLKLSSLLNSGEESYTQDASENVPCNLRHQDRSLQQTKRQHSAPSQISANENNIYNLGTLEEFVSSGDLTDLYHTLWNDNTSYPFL
# Experiment: PBM E-score (8-mer binding enrichment) (E-score (-0.5 to 0.5)); higher = stronger / more preferred TF binding; most listed sequences are background and not binding sites
# Details: protein concentration: 200 nM; construct: GST-full length
# How it was run: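 GST-tagged yeast TFs (full-length or DNA-binding domain) were made by PURExpress in vitro transcription/translation and applied at about 100-200 nM to universal all-10-mer Agilent arrays. The arrays were made double-stranded by primer extension, on fresh or once-stripped slides. Bound protein was detected with fluorescent anti-GST, and scans were normalised with masliner. Each ungapped eight-base word, pooled with its reverse complement, received an E-score (modified Wilcoxon-Mann-Whitney statistic) from the Universal PBM Analysis Suite.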
row,Sequence,PBM E-score
1,CAAAGCAG,-0.0327
2,AGGAGGAG,-0.247
3,CTTTGATA,-0.0365
4,CGGTGTTC,0.149
5,GGTACGAA,-0.0407
6,AGGCGAAT,-0.124
7,GCTCACAC,-0.172
8,GAGATGCA,-0.0746
9,ATGCTGGG,-0.0137
10,AATTTACG,0.0921
11,ACCAGTCG,-0.0214
12,AAGTCGGC,-0.0254
13,CAGAGAAA,-0.0892
14,ATCGTGTC,0.151
15,ACGTGAGG,-0.0596
16,ATTAATGA,0.117
17,ATCAGAGG,-0.207
18,AAACAATC,0.0659
19,CAATCCCA,-0.105
20,ATACATGG,-0.00278
21,CGCTTGAA,0.131
22,GATTGCCA,0.0763
23,AACCAAAT,0.15
24,CTGCGTTA,-0.127
25,GCATGACA,-0.105

row,Sequence,PBM E-score
1,ATAGACAT,-0.268
2,CTTCGGCC,0.0859
3,GGAGACCC,-0.0125
4,GGCTGTGA,-0.173
5,GAGCAACC,-0.0309
6,ATTAGACG,-0.0456
7,ATTGAATA,0.0411
8,CGAACGGC,0.177
9,ATTATGAG,-0.168
10,ATCCACAG,0.00018
11,AGTCTTCA,-0.23
12,AGTAGGGG,0.142
13,AACGAGGC,-0.0717
14,AAAGTTGT,0.123
15,AGGTCGGA,0.265
16,TGCTTAAA,-0.0433
17,GCCCTTCA,-0.183
18,CATGTATC,-0.0104
19,CGGTATCA,0.166
20,CCAACGGG,0.213
21,GACGTCCC,0.0169
22,AGAACATG,-0.0666
23,CGGCTGCC,0.25
24,AGGATGTG,-0.09
25,ACGGGCCG,0.0755

row,Sequence,PBM E-score
1,TCCAGTCA,-0.103
2,GATTTAGC,0.00489
3,TAAACCAA,-0.263
4,ATTTACTC,-0.0415
5,AGCGTAAT,-0.0873
6,GAGTCTTA,-0.308
7,GGTCTCCA,-0.156
8,AATTACGA,-0.0333
9,CCTTGACG,-0.0381
10,CACAAGGG,-0.214
11,AGGTGGCC,-0.0873
12,ATAAGTAG,-0.147
13,AGTGGGAC,-0.0707
14,ACACAGGT,-0.241
15,CTTATCTA,-0.09
16,ATGCGAAA,0.0602
17,CCTTCCAG,-0.256
18,GGCCCGCA,0.163
19,AGATGCCA,-0.138
20,AATGAAGA,0.0481
21,AGAGCGTG,0.0318
22,CCATGACC,-0.162
23,AGCCGCGC,0.236
24,CCTAGTTC,0.00624
25,CAATGCGG,0.0978

row,Sequence,PBM E-score
1,AAGTATAG,-0.144
2,CACTAGGG,-0.187
3,GGACACAC,0.225
4,AGTACAAC,0.0179
5,ACTCAGGG,-0.112
6,CGAGCGCG,0.273
7,CACACCAA,0.0361
8,GCCACCAA,-0.0361
9,ATGTCATA,0.0201
10,GTTCTAGA,-0.0376
11,CTGCTCCA,-0.0375
12,AGCTTTTG,-0.264
13,TCGTCGAA,-0.36
14,ACTCGTCG,-0.144
15,TATTTTCA,0.109
16,AGCTACCT,0.0102
17,TCTGGGAA,-0.101
18,ATTGCGAG,0.0487
19,AATCGACA,0.169
20,AAGATCGG,0.238
21,GCGGTAAC,0.232
22,AAAACGTG,-0.276
23,GCCGCGCA,0.188
24,ACTCAGGA,-0.0325
25,CCTATGGC,-0.0642

row,Sequence,PBM E-score
1,AAACGGTC,0.105
2,AGAATGGG,-0.0867
3,GGCCGAAA,0.199
4,CTCCTTGC,-0.152
5,AACGAAGA,-0.0494
6,CCCTTAGC,-0.0546
7,CGTTAAAC,-0.0721
8,CACTAAAA,0.0916
9,TATGATCA,-0.0608
10,AGAGGTAA,-0.217
11,GATCCGAA,0.365
12,ATGGAACA,-0.0996
13,AGGGAAAC,-0.104
14,GGCCGCAC,0.2
15,GATGTAAA,-0.118
16,TCGTAACA,-0.0457
17,AATCCCGT,0.409
18,GGAAAAGA,0.112
19,ATTACGGA,0.361
20,AGGATCTA,-0.352
21,CTCCGGAA,0.441
22,GACTACGC,-0.0705
23,ACTATCCG,0.316
24,ATATTTGG,-0.129
25,CGATGGAC,0.129

row,Sequence,PBM E-score
1,AATTCAAC,0.204
2,ATAACAAG,0.174
3,AAAGGTAA,-0.256
4,CCTACAGG,-0.184
5,TCTTTCCA,0.0128
6,CCAGCCCG,0.176
7,AATCGGCA,0.191
8,CAAAAGAG,-0.185
9,GGCAGTGA,-0.135
10,AAAAGTTA,-0.166
11,ACTTTCGA,-0.0188
12,GCGTACGC,-0.0541
13,GGGCAGAC,-0.118
14,CACCGGCC,0.108
15,CTCACTGA,-0.198
16,TCTCCCCA,-0.0624
17,ATGCCGGA,0.405
18,GGCCGGTA,0.274
19,TAAGGGTA,-0.262
20,CAATAACC,0.142
21,GAAACAGA,0.0157
22,TACCCACA,-0.153
23,TAGATTGA,0.115
24,CCATATCG,0.198
25,ACTAAGCC,0.101

row,Sequence,PBM E-score
1,ACCCTTCA,-0.0225
2,CCTTATAG,-0.225
3,CACAGGTA,-0.0978
4,CTACCTAC,0.0968
5,CTGCCGGC,0.339
6,GTGGAACA,0.0611
7,AACTACTT,-0.0276
8,CAAGCGGG,0.133
9,GGGGTCAC,-0.0788
10,AGAAATTA,0.187
11,AGAGGAGA,-0.199
12,CAACGAAC,0.0598
13,AACCGAAT,0.165
14,ATCTGTCA,-0.0405
15,CTCGATTC,0.105
16,GCAAGTAA,5e-05
17,ATGGCTTC,-0.216
18,ACTGAGAC,-0.272
19,ATTACGCC,-0.212
20,AAATATCC,0.103
21,ACGCCGAC,0.163
22,CGGGTGGA,0.243
